Laboratory results published in the supplement of paper PMC9151546.
Repeats are few or missing, and single values can be far off.

Columns and labels:
CHO-K1 [1] = assay: micronucleus frequency (% of nucleated events); higher = more micronuclei (genotoxic)
CHO-K1 [2] = assay: hypodiploid nuclei frequency (% of nucleated events); higher = more hypodiploid events (aneugenic)
Description: (§1)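 Flow-cytometric in vitro micronucleus assay (Litron MicroFlow) in CHO-K1 cells in 96-well plates, 19 concentrations (4.5-200 µM, n=1 per concentration). Without S9, cells were exposed for 24 h and sampled at 48 h. With Aroclor 1254-induced rat liver S9, cells were exposed for 3-4 h and sampled at 27-28 h. Read-outs are %MN and %hypodiploid nuclei relative to nucleated events, and relative survival as the nuclei-to-bead ratio versus the 1% DMSO vehicle control (x100).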

CHO-K1 [3] = assay: relative survival (nuclei to bead ratio vs DMSO control) (% of vehicle control); higher = more surviving cells
Description: as §1
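Wherever hypodiploid nuclei frequency (% of nucleated events) is given: hypodiploid nuclei gated on a flow cytometer with 488 nm excitation after SYTOX Green staining, cultures at 37 °C, positive controls vinblastine without S9 and cyclophosphamide with S9.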
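Wherever micronucleus frequency (% of nucleated events) is given: cells lysed with nuclei stained by SYTOX Green, then micronucleus-gated events counted against nucleated events by flow cytometry with 488 nm excitation.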
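Wherever relative survival (nuclei to bead ratio vs DMSO control) is given: Lysed-cell nuclei stained with SYTOX Green and counted against counting beads by flow cytometry at 488 nm excitation, with vinblastine (no S9) and cyclophosphamide (plus S9) as positive controls.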

Clc1cccc(Cl)c1Cl [1,2,3-Trichlorobenzene]
Details	hypodiploid nuclei frequency, CHO-K1 [2] [%]	micronucleus frequency, CHO-K1 [1] [%]	relative survival, CHO-K1 [3]
concentration: 4.5 (µM), S9 metabolic activation: with S9, exposure time: 3-4 hours	0.28	1.44	109
concentration: 4.5 (µM), S9 metabolic activation: without S9, exposure time: 24 hours	0.48	1.66	120
concentration: 5.63 (µM), S9 metabolic activation: with S9, exposure time: 3-4 hours	0.3	1.32	109
concentration: 5.63 (µM), S9 metabolic activation: without S9, exposure time: 24 hours	0.3	1.76	109
concentration: 7.04 (µM), S9 metabolic activation: with S9, exposure time: 3-4 hours	0.2	1.82	128
concentration: 7.04 (µM), S9 metabolic activation: without S9, exposure time: 24 hours	0.4	1.44	118
concentration: 8.8 (µM), S9 metabolic activation: with S9, exposure time: 3-4 hours	0.18	1.64	112
concentration: 8.8 (µM), S9 metabolic activation: without S9, exposure time: 24 hours	0.6	1.64	109
concentration: 11 (µM), S9 metabolic activation: with S9, exposure time: 3-4 hours	0.36	1.78	101
concentration: 11 (µM), S9 metabolic activation: without S9, exposure time: 24 hours	0.52	2	106
concentration: 13.7 (µM), S9 metabolic activation: with S9, exposure time: 3-4 hours	0.3	1.82	97.6
concentration: 13.7 (µM), S9 metabolic activation: without S9, exposure time: 24 hours	0.46	1.46	114
concentration: 17.2 (µM), S9 metabolic activation: with S9, exposure time: 3-4 hours	0.32	1.56	113
concentration: 17.2 (µM), S9 metabolic activation: without S9, exposure time: 24 hours	0.68	1.3	105
concentration: 21.5 (µM), S9 metabolic activation: with S9, exposure time: 3-4 hours	0.22	1.32	109
concentration: 21.5 (µM), S9 metabolic activation: without S9, exposure time: 24 hours	0.66	1.3	144
concentration: 26.8 (µM), S9 metabolic activation: with S9, exposure time: 3-4 hours	0.38	1.94	114
concentration: 26.8 (µM), S9 metabolic activation: without S9, exposure time: 24 hours	0.56	1.58	84.4
concentration: 33.6 (µM), S9 metabolic activation: with S9, exposure time: 3-4 hours	0.42	1.96	110
concentration: 33.6 (µM), S9 metabolic activation: without S9, exposure time: 24 hours	0.72	1.68	136
concentration: 41.9 (µM), S9 metabolic activation: with S9, exposure time: 3-4 hours	0.52	1.66	111
concentration: 41.9 (µM), S9 metabolic activation: without S9, exposure time: 24 hours	0.58	1.26	117
concentration: 52.4 (µM), S9 metabolic activation: with S9, exposure time: 3-4 hours	0.38	1.76	116
concentration: 52.4 (µM), S9 metabolic activation: without S9, exposure time: 24 hours	0.82	1.7	107
concentration: 65.5 (µM), S9 metabolic activation: with S9, exposure time: 3-4 hours	0.32	1.82	141
concentration: 65.5 (µM), S9 metabolic activation: without S9, exposure time: 24 hours	0.9	1.64	106
concentration: 81.9 (µM), S9 metabolic activation: with S9, exposure time: 3-4 hours	0.24	1.68	112
concentration: 81.9 (µM), S9 metabolic activation: without S9, exposure time: 24 hours	0.86	1.76	92.8
concentration: 102 (µM), S9 metabolic activation: with S9, exposure time: 3-4 hours	0.32	1.68	116
concentration: 102 (µM), S9 metabolic activation: without S9, exposure time: 24 hours	0.78	1.54	95.9
concentration: 128 (µM), S9 metabolic activation: with S9, exposure time: 3-4 hours	0.2	2.1	123
concentration: 128 (µM), S9 metabolic activation: without S9, exposure time: 24 hours	1.16	2.6	113
concentration: 160 (µM), S9 metabolic activation: with S9, exposure time: 3-4 hours	0.28	1.6	118
concentration: 160 (µM), S9 metabolic activation: without S9, exposure time: 24 hours	1.08	2.2	90.6
concentration: 200 (µM), S9 metabolic activation: with S9, exposure time: 3-4 hours	0.28	1.94	129
concentration: 200 (µM), S9 metabolic activation: without S9, exposure time: 24 hours	1.38	2.46	86.7

Clc1cc(Cl)c(Cl)cc1Cl [1,2,4,5-Tetrachlorobenzene]
Details	hypodiploid nuclei frequency, CHO-K1 [2] [%]	micronucleus frequency, CHO-K1 [1] [%]	relative survival, CHO-K1 [3]
concentration: 4.5 (µM), S9 metabolic activation: with S9, exposure time: 3-4 hours	0.08	0.74	81
concentration: 4.5 (µM), S9 metabolic activation: without S9, exposure time: 24 hours	0.5	1.54	122
concentration: 5.63 (µM), S9 metabolic activation: with S9, exposure time: 3-4 hours	0.1	0.92	88.2
concentration: 5.63 (µM), S9 metabolic activation: without S9, exposure time: 24 hours	0.46	1.24	132
concentration: 7.04 (µM), S9 metabolic activation: with S9, exposure time: 3-4 hours	0.08	0.8	81.6
concentration: 7.04 (µM), S9 metabolic activation: without S9, exposure time: 24 hours	0.32	1.06	134
concentration: 8.8 (µM), S9 metabolic activation: with S9, exposure time: 3-4 hours	0.14	0.94	103
concentration: 8.8 (µM), S9 metabolic activation: without S9, exposure time: 24 hours	0.4	1.2	156
concentration: 11 (µM), S9 metabolic activation: with S9, exposure time: 3-4 hours	0.24	0.88	88.6
concentration: 11 (µM), S9 metabolic activation: without S9, exposure time: 24 hours	0.44	1.32	137
concentration: 13.7 (µM), S9 metabolic activation: with S9, exposure time: 3-4 hours	0.28	0.84	93.3
concentration: 13.7 (µM), S9 metabolic activation: without S9, exposure time: 24 hours	0.2	1.12	171
concentration: 17.2 (µM), S9 metabolic activation: with S9, exposure time: 3-4 hours	0.24	0.86	86.8
concentration: 17.2 (µM), S9 metabolic activation: without S9, exposure time: 24 hours	0.38	1.32	147
concentration: 21.5 (µM), S9 metabolic activation: with S9, exposure time: 3-4 hours	0.3	0.86	91.9
concentration: 21.5 (µM), S9 metabolic activation: without S9, exposure time: 24 hours	0.5	1.06	134
concentration: 26.8 (µM), S9 metabolic activation: with S9, exposure time: 3-4 hours	0.1	0.74	71.9
concentration: 26.8 (µM), S9 metabolic activation: without S9, exposure time: 24 hours	0.46	2.16	140
concentration: 33.6 (µM), S9 metabolic activation: with S9, exposure time: 3-4 hours	0.18	0.88	75.9
concentration: 33.6 (µM), S9 metabolic activation: without S9, exposure time: 24 hours	0.62	1.46	136
concentration: 41.9 (µM), S9 metabolic activation: with S9, exposure time: 3-4 hours	0.1	0.64	98
concentration: 41.9 (µM), S9 metabolic activation: without S9, exposure time: 24 hours	0.44	1.2	153
concentration: 52.4 (µM), S9 metabolic activation: with S9, exposure time: 3-4 hours	0.12	0.42	93.8
concentration: 52.4 (µM), S9 metabolic activation: without S9, exposure time: 24 hours	0.42	1.42	124
concentration: 65.5 (µM), S9 metabolic activation: with S9, exposure time: 3-4 hours	0.2	0.7	74.8
concentration: 65.5 (µM), S9 metabolic activation: without S9, exposure time: 24 hours	0.52	1.58	145
concentration: 81.9 (µM), S9 metabolic activation: with S9, exposure time: 3-4 hours	0.1	0.7	101
concentration: 81.9 (µM), S9 metabolic activation: without S9, exposure time: 24 hours	0.58	1.44	157
concentration: 102 (µM), S9 metabolic activation: with S9, exposure time: 3-4 hours	0.3	1.22	86.6
concentration: 102 (µM), S9 metabolic activation: without S9, exposure time: 24 hours	0.72	1.48	143
concentration: 128 (µM), S9 metabolic activation: with S9, exposure time: 3-4 hours	0.18	0.74	98.6
concentration: 128 (µM), S9 metabolic activation: without S9, exposure time: 24 hours	0.5	2.04	157
concentration: 160 (µM), S9 metabolic activation: with S9, exposure time: 3-4 hours	0.2	0.86	94.1
concentration: 160 (µM), S9 metabolic activation: without S9, exposure time: 24 hours	1.08	1.78	129
concentration: 200 (µM), S9 metabolic activation: with S9, exposure time: 3-4 hours	0.1	0.82	81.6
concentration: 200 (µM), S9 metabolic activation: without S9, exposure time: 24 hours	1	2.24	121

O=c1[nH]sc2ccccc12 [1,2-Benzisothiazolin-3-one]
Details	hypodiploid nuclei frequency, CHO-K1 [2] [%]	micronucleus frequency, CHO-K1 [1] [%]	relative survival, CHO-K1 [3]
concentration: 4.5 (µM), S9 metabolic activation: with S9, exposure time: 3-4 hours	0.25	0.88	93.6
concentration: 4.5 (µM), S9 metabolic activation: without S9, exposure time: 24 hours	0.8	2.08	83
concentration: 5.63 (µM), S9 metabolic activation: with S9, exposure time: 3-4 hours	0.06	1.44	77.5
concentration: 5.63 (µM), S9 metabolic activation: without S9, exposure time: 24 hours	0.82	2.78	88.7
concentration: 7.04 (µM), S9 metabolic activation: with S9, exposure time: 3-4 hours	0.18	0.88	96.3
concentration: 7.04 (µM), S9 metabolic activation: without S9, exposure time: 24 hours	0.94	2.94	71.7
concentration: 8.8 (µM), S9 metabolic activation: with S9, exposure time: 3-4 hours	0.29	1.83	64.5
concentration: 8.8 (µM), S9 metabolic activation: without S9, exposure time: 24 hours	0.9	3.16	62.1
concentration: 11 (µM), S9 metabolic activation: with S9, exposure time: 3-4 hours	0.14	1.12	77.3
concentration: 11 (µM), S9 metabolic activation: without S9, exposure time: 24 hours	1.5	3.28	64.9
concentration: 13.7 (µM), S9 metabolic activation: with S9, exposure time: 3-4 hours	0.21	2.25	71.7
concentration: 13.7 (µM), S9 metabolic activation: without S9, exposure time: 24 hours	–	–	22
concentration: 17.2 (µM), S9 metabolic activation: with S9, exposure time: 3-4 hours	0.11	1.56	70.8
concentration: 17.2 (µM), S9 metabolic activation: without S9, exposure time: 24 hours	1.08	3.26	48.2
concentration: 21.5 (µM), S9 metabolic activation: with S9, exposure time: 3-4 hours	0.35	2.19	82.6
concentration: 21.5 (µM), S9 metabolic activation: without S9, exposure time: 24 hours	0.87	2.59	45.2
concentration: 26.8 (µM), S9 metabolic activation: with S9, exposure time: 3-4 hours	0.37	1.61	56.9
concentration: 26.8 (µM), S9 metabolic activation: without S9, exposure time: 24 hours	–	–	32
concentration: 33.6 (µM), S9 metabolic activation: with S9, exposure time: 3-4 hours	0.31	1.53	70.2
concentration: 33.6 (µM), S9 metabolic activation: without S9, exposure time: 24 hours	–	–	32.3
concentration: 41.9 (µM), S9 metabolic activation: with S9, exposure time: 3-4 hours	0.31	2.23	53.8
concentration: 41.9 (µM), S9 metabolic activation: without S9, exposure time: 24 hours	–	–	22.2
concentration: 52.4 (µM), S9 metabolic activation: with S9, exposure time: 3-4 hours	0.27	2.51	43.7
concentration: 52.4 (µM), S9 metabolic activation: without S9, exposure time: 24 hours	–	–	25.4
concentration: 65.5 (µM), S9 metabolic activation: with S9, exposure time: 3-4 hours	0.12	5.09	45.4
concentration: 65.5 (µM), S9 metabolic activation: without S9, exposure time: 24 hours	–	–	16.1
concentration: 81.9 (µM), S9 metabolic activation: with S9, exposure time: 3-4 hours	–	–	32.5
concentration: 81.9 (µM), S9 metabolic activation: without S9, exposure time: 24 hours	–	–	9.82
concentration: 102 (µM), S9 metabolic activation: with S9, exposure time: 3-4 hours	–	–	20.5
concentration: 102 (µM), S9 metabolic activation: without S9, exposure time: 24 hours	–	–	0.03
concentration: 128 (µM), S9 metabolic activation: with S9, exposure time: 3-4 hours	–	–	20.2
concentration: 200 (µM), S9 metabolic activation: with S9, exposure time: 3-4 hours	–	–	0.24
